{"source": "PubChem BioAssay AID489043", "about": "(National Center for Advancing Translational Sciences (NCATS), 2010)", "note": "Inconclusive results, whose numbers are uncertain, are shown with a selection of clear calls. Where the call is inconclusive, the potency comes from a doubtful curve fit. The source made the active and inactive calls. Calls come from the whole dose curve; as a rule, active = well fitted activation curve with a large enough effect; inconclusive = small, poorly fitted or top-dose-only effect; inactive = flat fitted curve, though single readings scatter. Potency is the fitted concentration of half-maximal effect; tags give direction and shape of the fitted curve."}
{"target": "Relaxin receptor 2 (Homo sapiens) (UniProt Q8WXD0)", "sequence (Q8WXD0 whole entry, looked up)": "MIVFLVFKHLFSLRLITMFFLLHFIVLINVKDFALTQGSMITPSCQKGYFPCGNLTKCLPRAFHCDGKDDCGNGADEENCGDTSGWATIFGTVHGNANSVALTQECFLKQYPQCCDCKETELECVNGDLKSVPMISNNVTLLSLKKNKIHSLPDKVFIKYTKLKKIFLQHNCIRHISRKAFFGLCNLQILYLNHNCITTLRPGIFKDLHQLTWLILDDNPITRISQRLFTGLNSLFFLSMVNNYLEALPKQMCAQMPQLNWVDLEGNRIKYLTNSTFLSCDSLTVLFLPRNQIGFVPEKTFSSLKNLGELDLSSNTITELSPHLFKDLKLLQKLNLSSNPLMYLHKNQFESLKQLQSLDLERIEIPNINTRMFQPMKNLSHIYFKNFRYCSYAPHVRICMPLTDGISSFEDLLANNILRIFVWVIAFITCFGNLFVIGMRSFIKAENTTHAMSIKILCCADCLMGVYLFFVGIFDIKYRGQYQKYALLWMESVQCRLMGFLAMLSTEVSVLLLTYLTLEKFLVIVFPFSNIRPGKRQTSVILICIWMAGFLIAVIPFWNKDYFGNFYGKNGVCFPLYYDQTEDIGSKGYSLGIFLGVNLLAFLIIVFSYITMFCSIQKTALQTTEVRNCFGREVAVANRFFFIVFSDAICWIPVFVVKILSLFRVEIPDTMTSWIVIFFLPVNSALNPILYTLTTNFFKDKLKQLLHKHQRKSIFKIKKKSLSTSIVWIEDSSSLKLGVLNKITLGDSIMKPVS", "assay": "qHTS Assay for Agonists of the Relaxin Receptor RXFP1: RXFP2 Hit Validation; note: nearly all actives have a fitted effect of over 65% in size", "conditions": "HEK293 RXFP2 cAMP TR-FRET, 30 min; series mostly up to 115 µM; activation: at the top concentration", "how_it_was_run": "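Selectivity counter-assay for cAMP accumulation: RXFP2-HEK293 cells given compounds with Ro 20174 for 30 min at 37C, then lysed for TR-FRET cAMP detection. Data scaled to 29 nM porcine relaxin (100%); Hill-equation EC50.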"}
{"smiles": "CN1CCN(C(=O)CCc2nnc3ccc(N4CCC5(CC4)OCCO5)nn23)CC1", "activation": "inactive: 25.3%"}
{"smiles": "O=C(NCc1nnc2c(C(F)(F)F)cc(Cl)cn12)c1cccnc1", "Potency": "inconclusive: 38.9 µM [activator, partial curve]"}
{"smiles": "Cc1cccn2c(=O)c3cc(C(=O)NCCN4CCOCC4)c(=N)n(CCCN4CCOCC4)c3nc12", "Potency": "inconclusive: 48.9 µM [activator, partial curve]"}
{"smiles": "O=C(Oc1ccccc1)Oc1ccc2c(c1)oc(=O)c1ccccc12", "Potency": "active: 19.4 µM"}
{"smiles": "Cn1c(=O)c2c(nc(SCC(=O)N3CCOCC3)n2C)n(C)c1=O", "Potency": "inconclusive: 43.6 µM [activator, partial curve]"}
{"smiles": "COc1ccc(CC(=O)N/N=C/c2cccnc2)cc1OC", "activation": "inactive: -3.6%"}
{"smiles": "CC(=O)C(Sc1ccc2nnc(-c3cccnc3)n2n1)C(C)=O", "Potency": "inconclusive: 34.6 µM [activator, partial curve]"}
{"smiles": "Cc1nn(CCCC(=O)NCc2ccc(F)cc2)c(=O)c2nccn12", "Potency": "inconclusive: 34.6 µM [activator, partial curve]"}
{"smiles": "O=c1nc2ccccn2c2ccc(S(=O)(=O)N3CCCCC3)cc12", "Potency": "inconclusive: 34.6 µM [activator, partial curve]"}
{"smiles": "O=[N+]([O-])c1cccc(CSc2nnc3ccccn23)c1", "Potency": "active: 34.6 µM"}
{"smiles": "CN1C(=O)c2ccc(C(=O)Nc3ccc(Br)cn3)cc2C1=O", "Potency": "active: 21.8 µM"}
{"smiles": "CCNc1nc(NCC)nc(N(C)/N=C/c2ccco2)n1", "activation": "inactive: 7.92%"}
{"smiles": "Cc1ccc(Cl)cc1NC(=O)CCCN1C(=O)c2cccnc2C1=O", "Potency": "inconclusive: 38.9 µM [activator, partial curve]"}
{"smiles": "O=[N+]([O-])c1cc2c(c(CSc3nnc4ccccn34)c1)OCOC2", "Potency": "active: 11 µM"}
{"smiles": "Cn1c(N)c(C(=O)CSc2nnc(NC3CCCCC3)s2)c(=O)n(C)c1=O", "activation": "inactive: -14.8%"}
{"smiles": "Nc1c(Cl)cc(-c2[nH]c3cc(C(=O)NCCO)ccc3c(=O)c2O)cc1Cl", "Potency": "active: 34.6 µM"}
{"smiles": "CC1CCCCN1CCNC(=O)CCc1nnc2n(Cc3ccccc3)c(=O)c3ccccc3n12", "note": "(stereo not drawn)", "Potency": "inconclusive: 43.6 µM [activator, partial curve, poor fit]"}
{"smiles": "Cc1cc2c(SCC(=O)NCC3CCCO3)ncnc2s1", "note": "(stereo not drawn)", "Potency": "inconclusive: 38.9 µM [activator, partial curve]"}
{"smiles": "COC(=O)c1c(N2C(=O)CC(Sc3ncccc3C(=O)O)C2=O)sc(C)c1C", "note": "(stereo not drawn)", "activation": "inactive: -7.17%"}
{"smiles": "Cc1cc(C)nc(/N=C(\\N)Nc2ccc(S(=O)(=O)Nc3nccc(C)n3)cc2)n1", "Potency": "active: 34.6 µM"}
{"smiles": "Cc1cc2nc3ccc(=[N+](C)C)cc-3sc2cc1N", "activation": "inactive: -5.65%"}
{"smiles": "CN(C)c1ccc(C(=S)N2CCN(S(=O)(=O)c3ccccc3)CC2)cc1", "activation": "inactive: 7.33%"}
{"smiles": "O=C(Nc1ccccc1C(=O)Nc1ccc(F)cc1)c1ccco1", "activation": "inactive: 3.88% [at 125 µM]"}
{"smiles": "Cc1c(CCOC(=O)c2cc([N+](=O)[O-])ccc2Cl)sc[n+]1CCCCS(=O)(=O)[O-]", "activation": "inactive: 8.95%"}
{"smiles": "COC(=O)c1c(NC(=O)c2cccc(N3C(=O)CCC3=O)c2)sc2c1CCN(C(C)=O)C2", "Potency": "inconclusive: 27.5 µM [activator, partial curve]"}
{"smiles": "CN(CC(=O)Nc1ccccc1Cl)C(=O)COC(=O)Cc1c(F)cccc1Cl", "activation": "inactive: 0.312% [at 44.7 µM]"}
{"smiles": "COC(=O)c1sc(N2C(=O)C(O)=C(C(=O)c3ccc(C)o3)C2c2ccc(F)cc2)nc1C", "note": "(stereo not drawn)", "Potency": "active: 2.75 µM"}
{"smiles": "O=C(O)C1Cc2ccccc2CN1C(=O)CSc1nnc2ccccn12", "note": "(stereo not drawn)", "Potency": "inconclusive: 38.9 µM [activator, partial curve]"}
{"smiles": "N=c1c(C(=O)NC2CCCCC2)cc2c(=O)n3ccccc3nc2n1CC1CCCO1", "note": "(stereo not drawn)", "Potency": "inconclusive: 34.6 µM [activator, partial curve]"}
{"smiles": "Cc1c(Cl)cccc1NC(=O)CCCN1C(=O)c2cccnc2C1=O", "Potency": "inconclusive: 38.9 µM [activator, partial curve]"}
{"smiles": "Nc1c(S(=O)(=O)O)cc(NC(=O)c2ccccc2)c2c1C(=O)c1ccccc1C2=O", "activation": "inactive: -16.6%"}
{"smiles": "O=C(Nc1nc2ccsc2c(=O)s1)c1ccc(Cl)cc1", "Potency": "inconclusive: 10.9 µM [activator, full curve]"}
{"smiles": "COc1ccc(CN2C(=O)c3cccnc3C2=O)cc1S(=O)(=O)NCc1ccc(C)o1", "Potency": "inconclusive: 24.5 µM [activator, partial curve]"}
